# Reference: ChEMBL document CHEMBL1201862, “PubChem BioAssay data set” (2004)
#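 Interpolation was linear, between the two tested concentrations surrounding the appropriate level; five concentrations were tested over 48 hours in 96-well plates. At the GI50, growth is halved.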 Active and inactive are the calls of the source. Cut-off read from the data, not from the text of the source: active = GI50 up to about 1.1 µM and inactive = higher.
# System: NCI-H322M
# Experiment: growth of human tumour cells (NCI), 48 h
row,SMILES,GI50
1,Cc1nc2c(O)cccc2c(=O)[nH]1,inactive: 877 µM
2,O=C(Nc1ccc2oc(=O)c(C(=O)O)cc2c1)Oc1ccccc1,inactive: > 100 µM
3,O=C1NC2(C=Cc3c(ccc4ccccc34)O2)Oc2ccccc21 (stereo not drawn),inactive: 27.3 µM
4,COc1cc(C2C3=C(COC3=O)Oc3cc4c(cc32)OCO4)cc(OC)c1OC (stereo not drawn),active: 0.0351 µM
5,O=C1CCCC1C(=O)Nc1ccc2ccccc2c1 (stereo not drawn),inactive: > 100 µM
6,O=C1CC(c2ccccc2)=Nc2ccccc2N1,inactive: > 100 µM
7,O=C1CCC(c2ccccc2)=NN1c1nc2ccccc2s1,inactive: 40.3 µM
8,COc1ccc(C(=O)C(CO)Oc2ccccc2OC)cc1OC (stereo not drawn),inactive: > 100 µM
9,Cc1ccc(C(=O)Oc2ccc(/C=C3\CCC/C(=C\c4ccc(OC(=O)c5ccc(C)cc5)cc4)C3=O)cc2)cc1,inactive: > 100 µM
10,CC[C@]1(O)C(=O)OCc2c1cc1n(c2=O)Cc2cc3c(N)cccc3nc2-1,inactive: > 100 µM
11,Cc1c(C)c(C)c(-n2[nH]c(=O)n(C)c2=O)c(C)c1C,inactive: > 100 µM
12,CCOC(=O)c1cccc(NC(=O)CCl)c1,inactive: 2.21 µM
13,CS(=O)(=O)Nc1ccc2ccccc2c1,inactive: > 100 µM
14,CSc1cc(Cl)c(C)cc1S(=O)(=O)NC(=O)NNc1ccc(Cl)cc1,inactive: > 100 µM
15,Cc1cc2c(=O)cc(-c3ccncc3)oc2c(C(=O)O)c1C,inactive: > 100 µM
16,O=c1[nH]c2nc3ccccc3c(=O)n2/c1=C/c1ccco1,inactive: > 100 µM
17,O=C1/C(=C\c2ccc(F)cc2)CCOc2c1ccc1ccccc21,inactive: 22.5 µM
18,O=C1NCC2(CCN(CCCC3(c4ccc(F)cc4)OCCO3)CC2)N1c1ccccc1,inactive: > 100 µM
19,CCCNC(=S)N/N=C(\C)c1ccc(S(=O)(=O)N(C)c2ccccc2)cc1,inactive: > 100 µM
20,COc1ccc(/C=c2\s/c(=C3/SC(=S)N(c4ccccc4)C3=O)n(-c3ccccc3)c2=O)cc1,inactive: > 100 µM
21,C[C@]12CC[C@H]3[C@@H](CCC4=CC(=O)CC[C@@]43C)[C@]1(O)CC[C@]2(O)C(=O)CO,inactive: > 100 µM
22,NNC(=O)N/N=C1\CNC(=O)C(=O)C1c1nc2ccccc2s1 (stereo not drawn),inactive: > 100 µM
23,O=C1NC(=S)NC(=O)C1=Cc1ccc[nH]1,inactive: 24.5 µM
24,CC1=C(C(=O)Nc2ccccc2)C(c2ccc(C(C)C)cc2)C(C(=O)Nc2ccccc2)=C(C)N1,inactive: 30.5 µM

row,SMILES,GI50
1,Clc1cccc(N2CCN(CCN3CCc4c([nH]c5ccccc45)C3c3cccnc3)CC2)c1 (stereo not drawn),inactive: > 61.2 µM
2,CC(C)=CCC[C@@H](C)C1=C(O)C(=O)C(C)=C(N)C1=O,inactive: 25.8 µM
3,O=C1c2ccccc2C(=O)c2c1oc(=O)c1ccccc21,inactive: 6.81 µM
4,O=C1C(Cl)N(c2ccc([N+](=O)[O-])cc2)C1c1c[nH]c2ccccc12 (stereo not drawn),inactive: > 100 µM
5,CCOC(=O)c1c(C)n(C)c2c1cc(O)c1[nH]c3c(c12)CCCC3,inactive: 17.6 µM
6,Nc1nc2c(ncn2CC2CCC(CO)C2)c(=O)[nH]1 (stereo not drawn),inactive: > 100 µM
7,CC(=O)NC(CCCCNC(=O)NCCCl)C(=O)NCc1ccccc1 (stereo not drawn),inactive: > 100 µM
8,CCCCCCCCCCCCCCCCCCNc1ccn(C2OC(CO)C(OP(=O)(O)OCC(COP(=O)(O)OCC3OC(n4cc(F)c(NCCCCCCCCCCCCCCCCCC)nc4=O)CC3O)OC(=O)CCCCCCCCCCCCCCC)C2O)c(=O)n1 (stereo not drawn),inactive: > 100 µM
9,C[N+]1=c2c3cccc4cccc(c(=O)n2CCC1)c43,inactive: 26.4 µM
10,CCN(CC)CCn1c2c3ccccc3ccc2c2oc(=O)c3ccccc3c21,inactive: > 100 µM
11,Cc1ccc2c(c1)C(=O)N(N(C)C)CC(=O)N2,inactive: > 100 µM
12,O=c1c(-c2ccccc2)c(SCCN2CCCC2)n(-c2ccccc2)c(=S)n1-c1ccccc1,inactive: > 100 µM
13,Cc1c2cccc-2c(OCCOC(=O)n2ccnc2)cc2c1[nH]c1ccccc12,inactive: 11.1 µM
14,Cc1ccc(/N=N/NCCCCN/N=N/c2ccc(C)cc2)cc1,inactive: > 100 µM
15,CCCCc1ccc(Nc2nc3c(ncn3COCCBr)c(=O)[nH]2)cc1,inactive: > 100 µM
16,COc1ccc(C(C)NNC(=O)c2ccncc2)cc1OC (stereo not drawn),inactive: > 100 µM
17,CCOC(=O)C1CCn2c(nc3c2c(=O)n(C)c(=O)n3C)S1 (stereo not drawn),inactive: > 100 µM
18,Cc1c(F)c(N)c2c(=O)cc(-c3ccc(NC(=O)[C@@H](N)CCCCN)c(F)c3)oc2c1F,inactive: 8 µM
19,COc1ccc(N2C(=O)[C@H]3CC(C)c4c([nH]c5ccccc45)[C@H]3C2=O)cc1 (stereo partly drawn),inactive: 4.91 µM
20,COC(=O)C1=C(C(=O)OC)SC(=C2SCSC3=C2SC(C(=O)OC)=C(C(=O)OC)C32SC3=C(CCCC3)S2)S1,inactive: > 100 µM
21,O=C1c2cc3c(cc2CC12Cc1ccccc1C2)CCC3,inactive: 18.2 µM
22,COc1ccc2c([nH]c3cc(O)c(C)cc32)c1C=O,inactive: > 25 µM
23,O=C1CSC(c2ccc(Cl)cc2)N1c1ccc(-n2c(-c3ccccc3)nc3ccccc3c2=O)cc1 (stereo not drawn),inactive: 34.1 µM
24,CCCC(S(=O)(=O)c1ccccc1)S(=O)(=O)c1ccccc1,inactive: > 100 µM

row,SMILES,GI50
1,O=C1CCC(=O)c2sccc2N1,inactive: > 100 µM
2,c1ccc2cc3c(cc2c1)nc1ccccn13,inactive: > 100 µM
3,O=C(N/C(=C\c1cccc([N+](=O)[O-])c1)c1nc2cc([N+](=O)[O-])ccc2[nH]1)c1ccccc1,inactive: 34.2 µM
4,O=C(CC(C(=O)c1ccsc1)c1cccs1)c1cccs1 (stereo not drawn),inactive: 94.6 µM
5,Nc1cccc(/C=C/C(=O)N2CCN(CCOC(c3ccccc3)c3ccccc3)CC2)c1,inactive: 16.6 µM
6,Cc1cc2c(=O)cc(-c3cccs3)oc2c(C(=O)O)c1C,inactive: > 100 µM
7,CC(C)[C@@H]1CC[C@@H](C)C[C@H]1OC(=O)/C=C1/C2C=CC(O2)C1C(=O)O[C@@H]1C[C@H](C)CC[C@H]1C(C)C (stereo partly drawn),inactive: > 100 µM
8,CC(C)[Si](OC1=CCC[C@H]2NC(=O)[C@@H](Cc3ccccc3)[C@@]12C)(C(C)C)C(C)C,inactive: 11.8 µM
9,COC(=O)[C@H](Cc1ccccc1)NC(=O)c1ccc(CNC(=O)/C=C/c2ccc(-c3ccccc3)cc2)cc1,inactive: > 100 µM
10,C=C(C(=C)N1N=NC2C3CCC(C3)C21)N1N=NC2C3CCC(C3)C21 (stereo not drawn),inactive: > 100 µM
11,Nc1nnnn1NC(=O)NCCCl,inactive: > 10 µM
12,CCN(CC)/C(SCc1ccccc1)=C(\C(Cl)=C(Cl)Cl)[N+](=O)[O-],inactive: 24.7 µM
13,CN(C)CCCNC(=O)c1c(O)c2ccccc2[nH]c1=O,inactive: > 100 µM
14,N#Cc1cc([N+](=O)[O-])ccc1NC(=O)/C(=N\NC(=O)c1ccncc1)C(c1cnc2ccc([N+](=O)[O-])cc2n1)[N+](=O)[O-] (stereo not drawn),inactive: 4.6 µM
15,C=C1C[C@@H](O)[C@@H](Br)C(C)(C)[C@]12CCC(C)(Cl)C(Br)C2 (stereo partly drawn),inactive: 32 µM
16,CC(=O)Oc1c(C)c2c(O)c3c1C1=C(OCOC1=C(C)C3=O)/C(C)=C/C(C)(O)C(O)C(C)C(O)C1C(=O)OC(C(C)C1O)C(C)(O)/C=C\C=C(C)C(=O)N2 (stereo not drawn),inactive: 50 µM
17,CNc1nnc(CCCCCCCCc2nnc(NC)o2)o1,inactive: > 100 µM
18,CCC(C(=O)O)c1ccc(OCc2ccccc2)cc1 (stereo not drawn),inactive: > 100 µM
19,CC(=O)c1nc2ccccc2n1C(C)C(=O)c1ccccc1 (stereo not drawn),inactive: 82.8 µM
20,CCCCC1Cc2cc(O)ccc2-c2nc3cc(O)ccc3n21.CCCCC1Cc2cc(O)ccc2-c2nc3ccc(O)cc3n21 (stereo not drawn),inactive: 25.6 µM
21,CC(=O)N(C)c1ccc2c(ccc[n+]2[O-])c1[N+](=O)[O-],inactive: > 100 µM
22,CN(C)CCNC(=O)c1cccc2nc3c(Cl)cccc3nc12,inactive: 5.26 µM
23,O=C1CCC(=O)C12CCc1ccccc12,inactive: > 100 µM
24,Cc1cc(S(=O)(=O)Nc2nc(N)n(C)n2)c(S)cc1Cl,inactive: > 10 µM

row,SMILES,GI50
1,CCOC(=O)/C=C(\C(=O)OCC)n1ccc(=O)n(CC(=O)OCC)c1=O,inactive: 17.3 µM
2,CCOC(=O)/C=C(\C(=O)OCC)n1cc(C)c(=O)n(Cc2cn(CCCCOC(C)=O)nn2)c1=O,inactive: 20.1 µM
3,CCOC(=O)C(Cc1c(C=O)[nH]c2ccccc12)(NC(=O)c1ccccc1)C(=O)OCC,inactive: 14.3 µM
4,COc1ccc(CCN2C(=O)C(=O)C(C(=O)c3ccccc3)C2c2ccccc2)cc1OC (stereo not drawn),inactive: > 100 µM
5,COC(OC)C(C)CC(=O)N(C)C (stereo not drawn),inactive: > 100 µM
6,Fc1ccc(F)c(/C=N/C23CC4CC(CC(C4)C2)C3)c1,inactive: > 10 µM
7,CC1=C2C(O)C(C(C)C(=O)NCC(C)C)CCC2(C)C=CC1=O (stereo not drawn),inactive: > 100 µM
8,CCOC(=O)c1ccc(NCc2ccc3oc(=O)c(-c4ccccc4)nc3c2)cc1,inactive: > 100 µM
9,CCCCCCCC(=O)NCC(O)CNC(=O)CCCCCCC,inactive: > 100 µM
10,COC(=O)C1=C(OC(=O)/C(=C/c2ccc(Cl)cc2)c2ccccc2)C(C(=O)OC)[C@@]2(O)[C@@H](C(=O)OC)[C@H](C)C[C@@H]1[C@@H]2C(=O)OC (stereo partly drawn),inactive: > 100 µM
11,COc1ccc2c(c1)CC[C@@H]1C2CC[C@](C)(C#N)C1CC#N (stereo partly drawn),inactive: > 100 µM
12,c1ccc(C2(c3ccccc3)SSC3(S2)C2CC4CC(C2)CC3C4)cc1 (stereo not drawn),inactive: > 100 µM
13,C=C[C@]1(O)CCC[C@]2(C)C(=O)CCC12C (stereo partly drawn),inactive: 86.7 µM
14,CC(C)(C)C(=O)O[C@@H]1COC2C(O)COC21 (stereo partly drawn),inactive: > 100 µM
15,COc1c(Cl)c2c(c(OC)c1OC)-c1ccc(OC)c(=O)c(Cl)c1C(NC(C)=O)CC2 (stereo not drawn),active: 0.316 µM
16,CN(C)CCNC(=O)c1cccc2cc3c(Cl)cccc3nc12,inactive: 1.61 µM
17,Cc1ccc2c(O)cc(-c3ccc(Cl)s3)nc2n1,inactive: 1.46 µM
18,BrC(c1cccc2ccccc12)c1cccc2ccccc12,inactive: 21.6 µM
19,CCCCC/C=C\C=C1\C(=O)C=C[C@@H]1C/C=C\CCCC(=O)O,inactive: 6.18 µM
20,c1ccc2c(c1)[nH]c1c[nH]c3c4cccnc4nc-3c12,inactive: 16.1 µM
21,Cn1cnc2c(OCC3CCCCC3)nc(N)nc21,inactive: > 100 µM
